System: Proteus Mirabilis
Test: Promoting wave test (bio-wave model)
Conditions: final concentration of 0.5% on LB plate, 37° C., compared with control
From the text: 1.1 Samples: Pure Compound of Formula (I)
Strain: Proteus Mirabilis (which should comply with the following biological reaction characteristics: dynamics (+), urease (+), lactose (−), glucose (+), H2S (−), phenylalanine deaminase (+).
Culture medium: modified LB culture medium (the component of the composition are: trytones of 1%, yeast extract of 0.5%, sodium chloride 1%, glucose of 0.1%, TTC of 0.002% and pH=7.2˜7.4).

CC(=O)N[C@@H]1[C@@H](O)[C@H](O)[C@@H](CO)O[C@H]1O [compound of formula (I), N-acetyl-D-glucosamine] was tested, and the “promoting wave function (wave pattern of concentric rings)” value was “there were also many fine waves on each ring emerged”.
